{"source": "the RNAGym collection of RNA variant scans (doi:10.1093/nar/gkz1192)", "parents": {"B1": {"name": "CPEB3 Ribozyme (parent)", "chain": "UAACAGGGGGCCACAGCAGAAGCGUUCACGUCGCAGCCCCUGUCAGAUUCUGGUGAAUCUGCGAAUUCUGCUGUAUAUCUC"}}, "note": "Read counts are not given, so values of variants with three or more changes are uncertain."}
{"variants_of": "B1", "assay": "self-cleavage, relative activity (ratio to wild type); higher = more cleavage; in vitro, sequencing", "method_in_brief": "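Libraries of CPEB3 self-cleaving ribozyme mutants came from rounds of error-prone PCR and carried barcodes, which DNA sequencing matched to variants. In vitro transcription used T7 RNA polymerase at 37°C for 5 hours, with a further 15 min in DNase I before EDTA stopped the reaction; the ribozymes cleaved during both steps. The RNA was reverse transcribed with template switching and sequenced on Illumina. Relative activity is the cleaved/total read fraction of a variant divided by that of the unmutated ribozyme, averaged over three batches with at least 5 reads.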"}
{"variant": "UAACUGGGGGCCACAGCAGAAGCGUUCACGUCGCAGCCCCUGUCAGAUUCUGGAGAAUCUGCGAAUUCUGCUGUAUAACUC", "self-cleavage": 1}
{"variant": "UAACUGGGGGCCACAGCAGAAGCGUUCACGUCGCAGCCCCUGUCAGAUUCUGGCGAAUCUGCGAAUUCUGCUGAAUAUCUC", "self-cleavage": 1.19}
{"variant": "UAACUGGGGGCCACAGCAGAAGCGUUCACGUCGCAGCCCCUGUCAGAUUCUGGCGAAUCUGCGAAUUCUGCUGUAUAUCAC", "self-cleavage": 1.19}
{"variant": "UAACUGGGGGCCACAGCAGAAGCGUUCACGUCGCAGCCCCUGUCAGAUUCUGGUGAACCUGCGUAUUCUGCUGUAUGUCUC", "self-cleavage": 0.16}
{"variant": "UAACUGGGGGCCACAGCAGAAGCGUUCACGUCGCAGCCCCUGUCAGAUUCUGGUGAAUCAGCGGAUUCUGCUGUAUAUCUC", "self-cleavage": 0.69}
{"variant": "UAACUGGGGGCCACAGCAGAAGCGUUCACGUCGCAGCCCCUGUCAGAUUCUGGUGAAUCCGCGAUUUCUGCUGUAUAUCUC", "self-cleavage": 0.24}
{"variant": "UAACUGGGGGCCACAGCAGAAGCGUUCACGUCGCAGCCCCUGUCAGAUUCUGGUGAAUCCGAGAAUUCUGCUGUAUAUCUC", "self-cleavage": 0.29}
{"variant": "UAACUGGGGGCCACAGCAGAAGCGUUCACGUCGCAGCCCCUGUCAGAUUCUGGUGAAUCCGCAAGUUCUGCAGUACAUCUC", "self-cleavage": 0.26}
{"variant": "UAACUGGGGGCCACAGCAGAAGCGUUCACGUCGCAGCCCCUGUCAGAUUCUGGUGAAUCCGCGAAUUCUGCAGUACAUCUC", "self-cleavage": 0.41}
{"variant": "UAACUGGGGGCCACAGCAGAAGCGUUCACGUCGCAGCCCCUGUCAGAUUCUGGUGAAUCCGCGAAUUCUGCUGCAUAUCUC", "self-cleavage": 0.82}
{"variant": "UAACUGGGGGCCACAGCAGAAGCGUUCACGUCGCAGCCCCUGUCAGAUUCUGGUGAAUCUGCGAAUACUGCUGUUUAUCUC", "self-cleavage": 0.62}
{"variant": "UAACUGGGGGCCACAGCAGAAGCGUUCACGUCGCAGCCCCUGUCAGAUUCUGGUGAAUCUGCGAAUCCUGCUGUACAUCUC", "self-cleavage": 0.32}
{"variant": "UAACUGGGGGCCACAGCAGAAGCGUUCACGUCGCAGCCCCUGUCAGAUUCUGGUGAAUCUGCGAAUUCCGCUGUAUAUCAC", "self-cleavage": 1.07}
{"variant": "UAACUGGGGGCCACAGCAGAAGCGUUCACGUCGCAGCCCCUGUCAGAUUCUGGUGAAUCUGCGAAUUCCGCUGUAUAUCCC", "self-cleavage": 0.6}
{"variant": "UAACUGGGGGCCACAGCAGAAGCGUUCACGUCGCAGCCCCUGUCAGAUUCUGGUGAAUCUGCGAAUUCUGCUGUAUACCCC", "self-cleavage": 0.77}
{"variant": "UAACAAGGGGCCCCAGCAGAAGCGAUCACGUCGCAGCCCCUGUCAGAUUCUGGUGAAUCCGCGGAUUCUGCUGUUUAUCUC", "self-cleavage": 0.08}
{"variant": "UAACAAGGGGCCCCAGCAGAAGCGUUCACGUCGCAGCCCCUGUCAGAUUCUGGUGAAUCUGCGAAUCCUGCUGUAUAUCUC", "self-cleavage": 0.29}
{"variant": "UAACAAGGGGCCGCGGCAGAAGCGUCCACGUCGCAGCCCCUGUCAGAUUCUGGUGAAUCUGCGAAUUCUGCUGUACAUCUC", "self-cleavage": 0.31}
{"variant": "UAACAAGGGGCCGCUGCAGAAGCGUUCACGUCGCAGCCCCUGUCAGAUUCUGGUGAAUCUGCGAAUUCUGCUGUAUAUCUC", "self-cleavage": 0.13}
{"variant": "UAACAAGGGGCCGCAGCAGAAGCGUUCACGUCGCAGCCCCUGUCAGGUUCUGGUGAAUGUGCGAAUUCUGCUGUAUAUCUC", "self-cleavage": 0.06}
{"variant": "UAACAAGGGGCCGCAGCAGAAGCGUUCACGUCGCAGCCCCUGUCAGGUUCUGAUGAAUCUGCGAAUUCUGGUGUAUAUCUC", "self-cleavage": 0.2}
{"variant": "UAACAAGGGGCCGCAGCAGAAGCGAUUACGUCGCAGCCCCUGUCAGAUUCUGGUGAAUCUGCGAAUUCAGCUGUUUAUCUC", "self-cleavage": 0.13}
{"variant": "UAACAAGGGGCCGCAGCAGAAGCGUUCACGUCGCAGCCCCAGUCGGAUUCUGGUGAAUCUGCGAAUUCUGCUGUACAACUC", "self-cleavage": 0.05}
{"variant": "UAACAAGGGGCCGCAGCAGAAGCGUUCACGUCGCAGCCCCAGUCAGAUUCUGGAGAAUCUCCGAAUCCUGCUGUAUAUCUC", "self-cleavage": 0.16}
{"variant": "UAACAAGGGGCCGCAGCAGAAGCGUUCACGUCGCAGCCCCUGUCAGAUUCUGGUGAAUCUGCGAAUUCGGCUGUAUAUCUC", "self-cleavage": 0.26}
{"variant": "UAACAAGGGGCCUCGGCAGAAGCGUUCACGUCGCAGCCCCUGUCAGAUUCUGGUGAAUCUGCGAAUUCUGCUGUAUAUCUC", "self-cleavage": 0.09}
{"variant": "UAACAAGGGGCCUCAGCAGAGGCGCUCACGUCGCAGCCCCCGUCAGAUUCUGGUGAAUCCGCGAAUUCUGCUGUAUAUCUC", "self-cleavage": 0.07}
{"variant": "UAACAAGGGGCCUCAGCAGAAGCGUUCGCGUCGCAGCCCCCGUCAGAUUCUGGUGAACCUGCGAGUUCUGCAGUAUAUCUC", "self-cleavage": 0.04}
{"variant": "UAACAAGGGGCCUCAGCAGAAGCGUUCACGUCGCAGCCCCUGUCAGUUUCUGGUGAAUCUGCGAAUUCUGCUGUAUAUCUC", "self-cleavage": 0.32}
{"variant": "UAACAAGGGGCCUCAGCAGAAGCGUUCACGUCGCAGCCCCUGUCAGAUUCUGGUGGAUCUGCGAAUUCUGCUGUAUAUCUC", "self-cleavage": 0.2}
{"variant": "UAACAAGGGGCCUCAGCAGAAGCGUACACGUCGCAGCCCCUGUCAGAUUCUGGUGAAUCUGCGAAUUCUGCUGUAUAUCUC", "self-cleavage": 0.31}
{"variant": "UAACAAGGGGCCACCGCGGAAGCGUUCACGUCGCAACCCCUGUCAGAUUCUGGUGAAUCUGCGAAUUCUGCUGUAUAUCUC", "self-cleavage": 0.24}
{"variant": "UAACAAGGGGCCACGGCCGAAGCGCUCACGUCGCAGCCCCUGUCAGACUCUGGUGAAUCUGCGAAUUCUGCUUUUUAUCUC", "self-cleavage": 0.03}
{"variant": "UAACAAGGGGCCACGGCAGGAGCGUUCACGUCGCAGCCCCUGUCAGAUUCUGGUGAAUCUGCGAAUUCUGCUGUAUAUCUC", "self-cleavage": 0.09}
